Measured values reported in the supplement of paper PMC8728848.
The list shows a part of the results.

Legend:
Test in all cases: glycan array binding signal (z-score within array); higher = stronger binding
Details in all cases: glycan notation: IUPAC condensed, linker removed
[1] = molecular target: Gal(b1-3)[Fuc(a1-4)]GlcNAc(b1-6)GalNAc
Procedure, shortened: (§1)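 Negative Z-scores can be read as non-binding. The Z-score is calculated within each array and then averaged across arrays of one protein sequence at different concentrations or buffers and across linkers. Arrays, 3228 in all, were curated from the Consortium for Functional Glycomics database and kept only where the protein sequence was available.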

[2] = molecular target: Gal(b1-3)[GlcNAc(b1-6)]GalNAc
Procedure, shortened: as §1

[3] = molecular target: Gal(b1-3)[Neu5Ac(a2-6)]GalNAc
Procedure, shortened: as §1

[4] = molecular target: Gal(b1-3)[Neu5Ac(a2-6)]GlcNAc(b1-4)Gal(b1-4)Glc
Procedure, shortened: as §1

[5] = molecular target: Gal(b1-3)[Neu5Ac(b2-6)]GalNAc
Procedure, shortened: as §1

Gal(b1-4)Gal = molecular target: Gal(b1-4)Gal
Procedure, shortened: as §1

[6] = molecular target: Gal(b1-4)GalNAc(a1-3)[Fuc(a1-2)]Gal(b1-4)GlcNAc
Procedure, shortened: as §1

[7] = molecular target: Gal(b1-4)GalNAc(b1-3)[Fuc(a1-2)]Gal(b1-4)GlcNAc
Procedure, shortened: as §1

Gal(b1-4)Glc = molecular target: Gal(b1-4)Glc
Procedure, shortened: as §1

Gal(b1-4)Glc6S = molecular target: Gal(b1-4)Glc6S
Procedure, shortened: as §1

Gal(b1-4)GlcNAc = molecular target: Gal(b1-4)GlcNAc
Procedure, shortened: as §1

[8] = molecular target: Gal(b1-4)GlcNAc(a1-6)Gal(b1-4)GlcNAc
Procedure, shortened: as §1

Gal(b1-4)GlcNAc(b1-2)Man = molecular target: Gal(b1-4)GlcNAc(b1-2)Man
Procedure, shortened: as §1

[9] = molecular target: Gal(b1-4)GlcNAc(b1-2)Man(a1-3)Man(b1-4)GlcNAc(b1-4)GlcNAc
Procedure, shortened: as §1

[10] = molecular target: Gal(b1-4)GlcNAc(b1-2)Man(a1-3)[Gal(b1-4)GlcNAc(b1-2)Man(a1-6)]Man(b1-4)GlcNAc(b1-4)GlcNAc
Procedure, shortened: as §1

[11] = molecular target: Gal(b1-4)GlcNAc(b1-2)Man(a1-3)[Gal(b1-4)GlcNAc(b1-2)Man(a1-6)]Man(b1-4)GlcNAc(b1-4)[Fuc(a1-6)]GlcNAc
Procedure, shortened: as §1

[12] = molecular target: Gal(b1-4)GlcNAc(b1-2)Man(a1-3)[Gal(b1-4)GlcNAc(b1-2)Man(a1-6)][Gal(b1-4)GlcNAc(b1-4)]Man(b1-4)GlcNAc(b1-4)[Fuc(a1-6)]GlcNAc
Procedure, shortened: as §1

[13] = molecular target: Gal(b1-4)GlcNAc(b1-2)Man(a1-3)[Gal(b1-4)GlcNAc(b1-2)Man(a1-6)][GlcNAc(b1-4)]Man(b1-4)GlcNAc(b1-4)[Fuc(a1-6)]GlcNAc
Procedure, shortened: as §1

[14] = molecular target: Gal(b1-4)GlcNAc(b1-2)Man(a1-3)[GlcNAc(b1-2)Man(a1-6)]Man(b1-4)GlcNAc(b1-4)GlcNAc
Procedure, shortened: as §1

[15] = molecular target: Gal(b1-4)GlcNAc(b1-2)Man(a1-3)[GlcNAc(b1-4)][Gal(b1-4)GlcNAc(b1-2)Man(a1-6)]Man(b1-4)GlcNAc(b1-4)GlcNAc
Procedure, shortened: as §1

[16] = molecular target: Gal(b1-4)GlcNAc(b1-2)Man(a1-3)[Man(a1-6)]Man(b1-4)GlcNAc(b1-4)GlcNAc
Procedure, shortened: as §1

[17] = molecular target: Gal(b1-4)GlcNAc(b1-2)Man(a1-6)Man(b1-4)GlcNAc(b1-4)GlcNAc
Procedure, shortened: as §1

[18] = molecular target: Gal(b1-4)GlcNAc(b1-2)Man(a1-6)[GlcNAc(b1-2)Man(a1-3)]Man(b1-4)GlcNAc(b1-4)GlcNAc
Procedure, shortened: as §1

[19] = molecular target: Gal(b1-4)GlcNAc(b1-2)Man(a1-6)[Man(a1-3)]Man(b1-4)GlcNAc(b1-4)GlcNAc
Procedure, shortened: as §1

[20] = molecular target: Gal(b1-4)GlcNAc(b1-2)[Gal(b1-4)GlcNAc(b1-4)]Man(a1-3)[Gal(b1-4)GlcNAc(b1-2)Man(a1-6)]Man(b1-4)GlcNAc(b1-4)GlcNAc
Procedure, shortened: as §1

[21] = molecular target: Gal(b1-4)GlcNAc(b1-2)[Gal(b1-4)GlcNAc(b1-4)]Man(a1-3)[Gal(b1-4)GlcNAc(b1-2)[Gal(b1-4)GlcNAc(b1-6)]Man(a1-6)]Man(b1-4)GlcNAc(b1-4)GlcNAc
Procedure, shortened: as §1

[22] = molecular target: Gal(b1-4)GlcNAc(b1-2)[Gal(b1-4)GlcNAc(b1-4)]Man(a1-3)[GlcNAc(b1-4)][Gal(b1-4)GlcNAc(b1-2)Man(a1-6)]Man(b1-4)GlcNAc(b1-4)GlcNAc
Procedure, shortened: as §1

[23] = molecular target: Gal(b1-4)GlcNAc(b1-2)[Gal(b1-4)GlcNAc(b1-4)]Man(a1-3)[GlcNAc(b1-4)][Gal(b1-4)GlcNAc(b1-2)[Gal(b1-4)GlcNAc(b1-6)]Man(a1-6)]Man(b1-4)GlcNAc(b1-4)GlcNAc
Procedure, shortened: as §1

[24] = molecular target: Gal(b1-4)GlcNAc(b1-2)[Gal(b1-4)GlcNAc(b1-6)]Man(a1-6)[Gal(b1-4)GlcNAc(b1-2)Man(a1-3)]Man(b1-4)GlcNAc(b1-4)GlcNAc
Procedure, shortened: as §1

[25] = molecular target: Gal(b1-4)GlcNAc(b1-2)[Gal(b1-4)GlcNAc(b1-6)]Man(a1-6)[Gal(b1-4)GlcNAc(b1-2)Man(a1-3)]Man(b1-4)GlcNAc(b1-4)[Fuc(a1-6)]GlcNAc
Procedure, shortened: as §1

[26] = molecular target: Gal(b1-4)GlcNAc(b1-2)[Gal(b1-4)GlcNAc(b1-6)]Man(a1-6)[GlcNAc(b1-4)][Gal(b1-4)GlcNAc(b1-2)Man(a1-3)]Man(b1-4)GlcNAc(b1-4)GlcNAc
Procedure, shortened: as §1

[27] = molecular target: Gal(b1-4)GlcNAc(b1-2)[Gal(b1-4)GlcNAc(b1-6)]Man(a1-6)[GlcNAc(b1-4)][Gal(b1-4)GlcNAc(b1-2)[Gal(b1-4)GlcNAc(b1-4)]Man(a1-3)]Man(b1-4)GlcNAc(b1-4)[Fuc(a1-6)]GlcNAc
Procedure, shortened: as §1

[28] = molecular target: Gal(b1-4)GlcNAc(b1-3)Gal(b1-3)GalNAc
Procedure, shortened: as §1

[29] = molecular target: Gal(b1-4)GlcNAc(b1-3)Gal(b1-3)GlcNAc
Procedure, shortened: as §1

[30] = molecular target: Gal(b1-4)GlcNAc(b1-3)Gal(b1-4)Glc
Procedure, shortened: as §1

[31] = molecular target: Gal(b1-4)GlcNAc(b1-3)Gal(b1-4)GlcNAc
Procedure, shortened: as §1

[32] = molecular target: Gal(b1-4)GlcNAc(b1-3)Gal(b1-4)GlcNAc(b1-2)Man(a1-3)[Gal(b1-4)GlcNAc(b1-3)Gal(b1-4)GlcNAc(b1-2)Man(a1-6)]Man(b1-4)GlcNAc(b1-4)GlcNAc
Procedure, shortened: as §1

[33] = molecular target: Gal(b1-4)GlcNAc(b1-3)Gal(b1-4)GlcNAc(b1-2)Man(a1-3)[Gal(b1-4)GlcNAc(b1-3)Gal(b1-4)GlcNAc(b1-2)Man(a1-6)]Man(b1-4)GlcNAc(b1-4)[Fuc(a1-6)]GlcNAc
Procedure, shortened: as §1

B1: Clone730PsrP (Streptococcus pneumoniae) (protein)
chain: MDHHHHHHHHHHASENLYFQGAMVVGSQTAAATEATAKKVEEDRKKPASDYVASVTNVNLQSYAKRRKRSVDSIEQLLASIKNAAVFSGNTIVNGAPAINASLNIAKSETKVYTGEGVDSVYRVPIYYKLKVTNDGSKLTFTYTVTYVNPKTNDLGNISSMRPGYSIYNSGTSTQTMLTLGSDLGKPSGVKNYITDKNGRQVLSYNTSTMTTQGSGYTWGNGAQMNGFFAKKGYGLTSSWTVPITGTDTSFTFTPYAARTDRIGINYFNGGGKVVESSTT
[1]
  glycan array binding signal (z-score): -0.533
[2]
  glycan array binding signal (z-score): -0.223
[3]
  glycan array binding signal (z-score): -0.508
[4]
  glycan array binding signal (z-score): -0.371
[5]
  glycan array binding signal (z-score): -0.592
Gal(b1-4)Gal
  glycan array binding signal (z-score): -0.482
[6]
  glycan array binding signal (z-score): -0.441
[7]
  glycan array binding signal (z-score): -0.523
Gal(b1-4)Glc
  glycan array binding signal (z-score): -0.015
Gal(b1-4)Glc6S
  glycan array binding signal (z-score): -0.098
Gal(b1-4)GlcNAc
  glycan array binding signal (z-score): -0.123
[8]
  glycan array binding signal (z-score): 0.369
Gal(b1-4)GlcNAc(b1-2)Man
  glycan array binding signal (z-score): 1.47
[9]
  glycan array binding signal (z-score): -0.353
[10]
  glycan array binding signal (z-score): -0.345
[11]
  glycan array binding signal (z-score): -0.152
[12]
  glycan array binding signal (z-score): -0.252
[13]
  glycan array binding signal (z-score): -0.249
[14]
  glycan array binding signal (z-score): -0.379
[15]
  glycan array binding signal (z-score): -0.351
[16]
  glycan array binding signal (z-score): -0.069
[17]
  glycan array binding signal (z-score): -0.294
[18]
  glycan array binding signal (z-score): -0.191
[19]
  glycan array binding signal (z-score): -0.475
[20]
  glycan array binding signal (z-score): -0.616
[21]
  glycan array binding signal (z-score): -0.51
[22]
  glycan array binding signal (z-score): -0.48
[23]
  glycan array binding signal (z-score): -0.089
[24]
  glycan array binding signal (z-score): -0.542
[25]
  glycan array binding signal (z-score): -0.33
[26]
  glycan array binding signal (z-score): -0.616
[27]
  glycan array binding signal (z-score): -0.603
[28]
  glycan array binding signal (z-score): -0.344
[29]
  glycan array binding signal (z-score): -0.406
[30]
  glycan array binding signal (z-score): 0.441
[31]
  glycan array binding signal (z-score): -0.274
[32]
  glycan array binding signal (z-score): 0.265
[33]
  glycan array binding signal (z-score): -0.138
